PubChem BioAssay AID1347073 (National Center for Advancing Translational Sciences (NCATS), 2019)
The campaign covered roughly 45,000 compounds. About 200 (0.44%) were called active. Not shown: some 7% with an inconclusive outcome. The call rests on the fitted dose curve; in most records, active means well fitted activation curve with a large enough effect; inconclusive means small, poorly fitted or top-dose-only effect; inactive means no such curve, though single readings can be large or run the other way. The list shows a part of the results.

Assay: qHTS of TDP-43 Inhibitors: NCGC Sytravon Library Screen; further: nearly all actives have a fitted effect of over 55% in size; on growth rescue (activation): 0% is about no effect
Details: yeast TDP-43 toxicity rescue, BacTiter-Glo growth, 24 h; series mostly up to 46.1 µM; growth rescue (activation): at the top concentration
Procedure, shortened: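 TDP-43-expressing yeast, pregrown in raffinose, seeded at OD600 0.02 in galactose medium with compound for 24 hr at 30 deg C. Growth read by BacTiter-Glo luminescence, so rescue of toxicity appears as activation.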
Potency means the concentration at half of the fitted maximal effect.

Row | SMILES | growth rescue (activation) | Potency
1 | COc1ccc(-c2cc(C(F)(F)F)n3ncc(C(=O)N(C)Cc4ccccc4)c3n2)cc1 | inactive: 18.7% | 
2 | O=C(N/N=C/C(Cl)=C/c1ccccc1)c1ccccc1F | inactive: 9.33% | 
3 | Cc1ccc(/C(N)=N/OC(=O)COc2ccc(Cl)c(C)c2)cc1 | inactive: -4.9% | 
4 | O=c1c2ccccc2c(C=Nc2ccc(O)cc2)c(O)n1-c1nccs1 | inactive: 11.7% | 
5 | O=C(NCc1ccco1)c1c(F)cccc1Cl | inactive: 18.1% | 
6 | CC(C)(/C=N/NC(=O)CSCc1ccccc1Cl)CCC#N | inactive: -3.72% | 
7 | CCC1(CC)NC(=O)N(CC(=O)Nc2sc3c(c2C(N)=O)CCC3)C1=O | inactive: 19% | 
8 | CCNC(=S)N(CCc1cccc(C)c1)Cc1cc2cc(OC)c(OC)cc2[nH]c1=O | inactive: -19.7% | 
9 | CS(=O)(=O)N(CC(=O)N1CCCCC1)c1sc2c(c1C#N)CCCC2 | inactive: 27.8% | 
10 | COc1ccc(C(N)c2csc(Nc3ccc(C(=O)NCCCO)cn3)n2)cc1 (stereo not drawn) | inactive: 13% | 
11 | CCc1ccc(NC(=O)CC2C(=O)NCCN2C(=O)c2ccccc2OC)cc1 (stereo not drawn) | inactive: 5.24% | 
12 | Cc1cc(C)nc(N/N=C/c2cc(Br)ccc2O)n1 | inactive: -20.1% | 
13 | Cc1cccc(-c2n[nH]c(=S)n2-c2ccccc2)c1[N+](=O)[O-] | inactive: 18.2% | 
14 | COC(=O)c1ccc(NC2c3ncccc3C(=O)N2Cc2cccs2)cc1 (stereo not drawn) | inactive: -8.79% | 
15 | CCN1CCN(c2ncc(C(=O)Nc3cc(Cl)ccc3OC)c3ccccc23)CC1 | inactive: -3.01% | 
16 | COc1ccc(-c2nc(O)c3cnccn23)cc1 | inactive: 5.94% | 
17 | CC(c1nnnn1C1CCCCC1)N(Cc1ccccc1)Cc1cccnc1 (stereo not drawn) | inactive: 27.3% | 
18 | Cc1ccc(S(=O)(=O)N2CCCCC2)cc1NC(=O)CSc1nnc(C2CC2)n1C | inactive: -2.85% | 
19 | O=c1cc(CSc2nnc(COc3ccccc3)n2-c2ccccc2)c2ccccc2[nH]1 | inactive: 15% | 
20 | COc1ccc(OC)c(NC(=O)CCNC(=O)Cn2ccc3ccccc3c2=O)c1 | inactive: -1.89% | 
21 | COC(=O)c1ccccc1NC(=O)CNCCc1ccc(OC)c(OC)c1 | inactive: -5.44% | 
22 | CCc1ccccc1NC(=O)COc1ccc(N2CC(C(N)=O)CC2=O)cc1 (stereo not drawn) | inactive: 9.83% | 

Row | SMILES | growth rescue (activation) | Potency
23 | Cc1ccc(S(=O)(=O)N2CCN(C)CC2)c2nsnc12 | inactive: 3.64% | 
24 | CC(=O)c1ccc(OC(C)C(=O)NCC2(N3CCOCC3)CCCCC2)cc1 (stereo not drawn) | inactive: 20.7% | 
25 | N#Cc1ccccc1Sc1ccccc1C(=O)OCC(=O)NC1CCS(=O)(=O)C1 (stereo not drawn) | inactive: -2.92% | 
26 | CCOC(=O)C1=C(CC)OC(N)=C(C#N)C1c1ccc(OC)c(C)c1OC (stereo not drawn) | inactive: 5.73% | 
27 | CCN(CC)C(=O)CSc1nc(C)cc(C)c1C#N | inactive: 4.39% | 
28 | COC(=O)CN1C(=O)C(O)(CC(=O)c2ccccc2)c2ccccc21 (stereo not drawn) | inactive: -0.464% | 
29 | O=C(O)COn1c(-c2ccccc2)nc2ccc([N+](=O)[O-])cc21 | inactive: -1.64% | 
30 | C=CCN(CC(=O)NCC1CCCO1)C(=O)CCC(=O)Nc1cc(C)on1 (stereo not drawn) | inactive: 10.5% | 
31 | CC(=O)Nc1ccc(NC(=S)NC(=O)/C=C/c2ccccc2)cc1 | inactive: 0.0178% | 
32 | O=C(CCCC(=O)Nc1ccccc1Br)N/N=C/c1c(F)cccc1Cl | inactive: 18.2% | 
33 | O=C(Oc1ccc(N(C(=O)c2ccncc2)S(=O)(=O)c2ccc(F)cc2)cc1)c1ccncc1 | inactive: 20.7% | 
34 | O=C(NNC(=O)C1CC1)c1ccc(F)cc1F | inactive: -5.49% | 
35 | Cn1c(=O)n(C)c2cc(NS(=O)(=O)c3ccc(C(C)(C)C)cc3)ccc21 | inactive: -2.16% | 
36 | S=c1[nH]nc(NCCc2ccccc2)s1 | inactive: 24.1% | 
37 | Cc1ccc(NC(=O)C2CC(=O)n3c(nc4ccccc43)N2)cc1C (stereo not drawn) | inactive: 4.28% | 
38 | CCn1c(C(=O)NCc2ccc(C)cc2)cc2sc(Cl)cc21 | inactive: -2.13% | 
39 | N#CC(c1ccc(Cl)nn1)c1c(F)cccc1Cl (stereo not drawn) | inactive: 2.62% | 
40 | COc1ccc(CCN(Cc2cccs2)S(=O)(=O)c2ccc(S(=O)(=O)N(C)C3CCCCC3)cc2)cc1OC | inactive: -0.215% | 
41 | O=C(CCc1ccccc1)NNC(=O)COc1ccc(Br)cc1 | inactive: -0.227% | 
42 | Fc1cc(Cl)ccc1NC1=NCCCCC1 | inactive: 4.29% | 
43 | NS(=O)(=O)c1ccc(CNC(=S)Nc2ccc(F)c(Cl)c2)cc1 | inactive: 6.46% | 
44 | NNC(=O)c1ccccc1-n1cccc1 | inactive: -2.2% | 

Row | SMILES | growth rescue (activation) | Potency
45 | COc1cc(CNC(=O)c2cc(-c3cc(C)cc(F)c3)n[nH]2)cc(OC)c1 | inactive: 4.43% | 
46 | CCc1nc2oc3ccccc3c(=O)c2c(=O)n1-c1ccc(C)cc1 | inactive: 3.69% | 
47 | CC1(c2ccc(OC(F)F)cc2)NC(=O)N(CC(=O)Nc2ccc(Cl)cc2F)C1=O (stereo not drawn) | inactive: -10.6% | 
48 | Cc1ccccc1OCCC(=O)NCCc1ccc(S(N)(=O)=O)cc1 | inactive: -0.332% | 
49 | COc1cc(/C=N/NC(=O)c2cccc(N3CCCC3=O)c2)ccc1O | inactive: -5.45% | 
50 | COc1ccc(C(=O)OCC(=O)Nc2cccc(C(C)=O)c2)cc1OC | inactive: 12.2% | 
51 | Cc1ccc(S(=O)(=O)N2CCN(C(C(=O)Nc3ccc(F)cc3)c3ccccc3)CC2)cc1 (stereo not drawn) | inactive: -14.9% | 
52 | COc1ccc(OC)c(NC(=O)c2nc(S(=O)(=O)Cc3ccccc3)ncc2Cl)c1 | inactive: -8.73% | 
53 | CC(=O)Nc1cccc(-c2cc(N3CCN(CCO)CC3)n3nccc3n2)c1 | inactive: -9.71% | 
54 | Cc1nc([N+](=O)[O-])c(C(=O)OCc2cccc(Br)c2)n1C |  | active: 12.6 µM
55 | O=C(c1cc(Cl)nc2ccccc12)N1CCN(Cc2ccc3c(c2)OCO3)CC1 | inactive: 31.8% | 
56 | O=C(CNS(=O)(=O)c1cccc(Br)c1)NCCCc1ccccc1 | inactive: 0.929% | 
57 | CN(C)c1cccc(NC(=O)c2ccco2)c1 | inactive: 26.1% | 
58 | Nc1c(C(=O)Nc2ccccc2Cl)nnn1-c1ccc2c(c1)OCCO2 | inactive: -5.8% | 
59 | O=C(C1=C(O)C(=O)N(CCN2CCOCC2)C1c1cccc(Br)c1)c1cccs1 (stereo not drawn) | inactive: 4.52% | 
60 | COC(=O)N1N=C(c2ccc(Br)cc2)CC1(O)C(F)(F)F (stereo not drawn) | inactive: 25.4% | 
61 | O=c1[nH]c(CSc2ncc(C(F)(F)F)cc2Cl)nc2ccccc12 | inactive: 19.6% | 
62 | O=S(=O)(NCCc1ccccc1)c1cccc2cccnc12 | inactive: 20.2% | 
63 | COC(=O)c1ccccc1NC(=O)CSc1n[nH]c(-c2ccco2)n1 | inactive: 11.4% | 
64 | C/C(=N\NC(=O)c1cc(C(C)C)[nH]n1)c1ccncc1 | inactive: 14.4% | 
65 | CCC(C)C1Nc2ccc(C(=O)NCc3ccc4c(c3)OCO4)cc2NC1=O (stereo not drawn) | inactive: 3.28% | 
66 | COc1cccc(C(=O)NC2CC(C)(C)NC(C)(C)C2)c1OC | inactive: 1.07% | 

Row | SMILES | growth rescue (activation) | Potency
67 | Cc1ccc(N/N=C(\C#N)C(N)=S)c(C)c1 | inactive: -80.4% | 
68 | O=C(O)CCCn1cc(NC(=O)COc2ccc(F)cc2F)cn1 | inactive: 5.03% | 
69 | Cc1c(Cl)cccc1NC(=S)NCCN1CCOCC1 | inactive: -17.5% | 
70 | Cc1cc(C)cc(NC(=O)Cn2cc(C(=O)c3ccncc3)c(=O)c3cc(C)c(C)cc32)c1 | inactive: 0.628% | 
71 | COC(=O)C1CC23C=CCN4CCC5(c6ccccc6NC15C2C)C43 (stereo not drawn) | inactive: 4.7% | 
72 | O=C(N/N=C/c1cccc(Br)c1)c1ccc(Br)cc1 | inactive: 3.73% | 
73 | CCc1nc2c(OCC(=O)C(C)(C)C)cccn2c1N(C)C(=O)CC(C)C | inactive: 2.07% | 
74 | COC(=O)c1ccccc1S(=O)(=O)N1CCC(C(=O)OCC(=O)NCC(F)(F)F)CC1 | inactive: 11% | 
75 | CC(=O)c1c(C)[nH]c(C2=NNC(=NC(C)(C)C)SC2)c1C | inactive: 11.4% | 
76 | CCOC(=O)c1c(NC(=O)C[n+]2ccc(N(C)C)cc2)sc(C)c1C | inactive: 2.27% | 
77 | O=C1S/C(=C/c2ccccc2)C(=O)N1CC(O)Cn1c2ccccc2c2ccccc21 (stereo not drawn) | inactive: 40% | 
78 | Cc1ccnc(SCC(=O)c2cc3ccccc3o2)n1 | inactive: -0.677% | 
79 | COc1ccc(S(=O)(=O)N2CCOCC2)cc1NC(=O)Cc1ccccc1Cl | inactive: 8.81% | 
80 | CCCCn1c(O)c(/C=C2\C=Nc3ccccc32)c(=O)[nH]c1=O | inactive: -4.23% | 
81 | COc1ccc2c(c1)C(C)=CC(C)(C)N2S(=O)(=O)c1ccc(Br)cc1 | inactive: 30.5% | 
82 | Cc1ccc(S(=O)(=O)Nc2c(O)c3ccccc3oc2=O)cc1C | inactive: 14.4% | 
83 | CCCCn1c(SCC(=O)c2ccc3c(c2)OCCO3)nnc1-c1ccoc1C | inactive: 20.7% | 
84 | O=C(c1ccco1)N1CCN(c2cc(=O)n(C3CCCCC3)c(=O)[nH]2)CC1 | inactive: 21.8% | 
85 | CCCSc1ncc(Cl)c(C(=O)Nc2ccc(S(=O)(=O)N3CCC(C)CC3)cc2)n1 | inactive: 8.37% | 
86 | O=C1c2ccccc2C(=O)C1c1ccc(Cl)cc1 | inactive: 14.2% | 
87 | COC(=O)C(C)Sc1nc2c(c(=O)n(C)c(=O)n2C)n1Cc1cccc(C)c1 (stereo not drawn) | inactive: 34.7% | 
88 | CCCn1c(N)c(C(=O)CSc2nnnn2-c2ccc(O)cc2)c(=O)n(C)c1=O | inactive: -4.46% | 

Row | SMILES | growth rescue (activation) | Potency
89 | O=C(Nc1ccccc1Cl)c1cc(C2CCCCN2C(=O)CCCc2ccccc2)on1 (stereo not drawn) | inactive: 2.28% | 
90 | Cc1ccc(/C=C(\C#N)C(=O)Nc2ccc(Br)cc2)o1 | inactive: 11.7% | 
91 | CN1CCC(C)(C(=O)Nc2ccc3c(c2)OCCO3)C1 (stereo not drawn) | inactive: 0.295% | 
92 | O=C(Nc1ccc(Cl)cc1)c1cccc(S(=O)(=O)Nc2ccccn2)c1 | inactive: 10.1% | 
93 | CC1CCCC(NC(=O)COC(=O)c2cccc(NS(=O)(=O)/C=C/c3ccccc3)c2)C1C (stereo not drawn) | inactive: 6.31% | 
94 | CSCCC1NC(=O)N(CC(=O)Nc2cccc(S(=O)(=O)N3CCCCCC3)c2)C1=O (stereo not drawn) | inactive: -3.62% | 
95 | O=C(CCNS(=O)(=O)c1cccc(Cl)c1)OCC(=O)N1CCN(C(=O)c2ccco2)CC1 | inactive: 12.6% | 
96 | COc1ccc(CNC(=O)COC(=O)/C=C/c2cccs2)cc1 | inactive: -6.5% | 
97 | C=CCC1(C#N)C(=S)NC2=C(C(=O)CC(C)(C)C2)C1c1ccc(Br)cc1 (stereo not drawn) | inactive: -0.442% | 
98 | CCOC(=O)CSc1nnc(COc2ccc3ccccc3c2)o1 | inactive: 2.6% | 
99 | Cc1cc(C)cc(NC(=O)N2CCCCCCC2)c1 | inactive: -14.4% | 
100 | CCCCN(C(=O)CN1CCOCC1)c1c(N)n(CC(C)C)c(=O)[nH]c1=O | inactive: -12.3% | 
101 | COc1ccc(NC(=O)NNC(=O)CCC(=O)Nc2ccccc2Cl)cc1 | inactive: 1.54% | 
102 | Cc1cc(C)cc(NC(=S)NCc2ccc(F)cc2)c1 | inactive: 4.84% | 
103 | COc1ccc(CC(=S)N2CCOCC2)cc1F | inactive: 31.3% | 
104 | Cn1nccc1C(=O)OCC(=O)Nc1ccccc1 | inactive: -1.82% | 
105 | Nc1nc(NS(=O)(=O)c2ccc(Cl)cc2)nn1-c1ccccc1 | inactive: 11.4% | 
106 | C=CCNC(=S)/C(=C(\[O-])c1ccc(Cl)cc1)[n+]1ccccc1 | inactive: 24.3% | 
107 | CN(C(=O)CCc1nnc(Cc2ccc(-c3ccccc3)cc2)o1)C1CCOCC1 | inactive: 4.94% | 
108 | Cc1cc(=O)oc2cc(NC(=O)C(C)N3C(=O)C4CCCCC4C3=O)ccc12 (stereo not drawn) | inactive: 18.4% | 
